# Results reported in PubChem BioAssay AID651820 (National Center for Advancing Translational Sciences (NCATS), 2012).
# About 12,000 (3.5%) of roughly 340,000 compounds were called active. Inconclusive results, whose numbers are uncertain, are shown with a selection of clear calls. Calls come from the whole dose curve; as a rule, active = well fitted inhibition curve with a large enough effect; inconclusive = small, poorly fitted or top-dose-only effect, or another doubt; inactive = no such curve, though single readings can be large or run the other way. No potency is given beside an inconclusive call; the fits are too rough.
# Assay: qHTS Assay for Inhibitors of Hepatitis C Virus (HCV)
# Settings: Huh7.5.1 HCVcc-Cre (HCVcc is cell-culture hepatitis C virus) infection, luciferase reporter, 44 h; activity change, negative = inhibition: at 41.8 µM (top of the series) unless noted
# Procedure, shortened: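 Compounds are dispensed onto cells plated 4 h earlier at 1,000 per well, with HCVcc-Cre virus (about 0.5 moi) added next. Following 44 h of culture, luminescent signal is measured for 15 sec after 15 min with substrate at room temperature.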
# % is set by controls: 0 for no effect and ±100 for the full control effect; potency is the fitted concentration of half-maximal effect; tags give direction and shape of the fitted curve.
SMILES,Potency,"activity change, negative = inhibition"
CC(C)Cn1c(=O)c(C(=O)Nc2ccncc2)c(O)c2ccccc21,active: 10 µM,
CC(C)(C)CC(C)(C)N=C1NS(=O)(=O)c2cc([N+](=O)[O-])ccc21,"inconclusive [inhibitor, single point]",
O=C(CN(Cc1ccco1)C(=O)CNS(=O)(=O)c1ccc(Cl)cc1)NCc1ccco1,,inactive: 3.55%
COc1ccc(C(=O)Nc2ccc(S(=O)(=O)N3CCc4ccccc43)cc2)cc1,active: 11.2 µM,
O=C(CCSc1ccc(Cl)c(Cl)c1)NC12CC3CC(CC(C3)C1)C2,"inconclusive [inhibitor, single point]",
COc1ccc(C2CC(=O)C(C=NCCN3CCOCC3)=C(O)C2)cc1 (centres undefined),"inconclusive [inhibitor, single point]",
COc1ccccc1NC(=O)c1ccc(S(=O)(=O)N(C)c2ccccc2OC)cc1,"inconclusive [inhibitor, single point]",
CCn1cc(C(=O)NCc2ccc(C)cc2)c(=O)c2cc(S(=O)(=O)N(C)C)ccc21,,inactive: -2.14%
Cc1ccc(C(=O)Nc2cccc(C(=O)NC3CCCCC3)c2)cc1,"inconclusive [inhibitor, partial curve]",
OC1COC(OCc2ccccc2)C(O)C1O (centres undefined),"inconclusive [inhibitor, single point]",
COc1cccc(N2CCN(C(=O)c3ccc(CS(=O)c4ccc(C)cc4)o3)CC2)c1 (centres undefined),,inactive: -3.36%
CCOc1cc(/C=C2/C(=O)ON=C2C)cc(Br)c1O,,inactive: -12.5%
Cc1nn(C)c(C)c1S(=O)(=O)N1CCC(C(=O)NC2CCCc3ccccc32)CC1 (centres undefined),"inconclusive [inhibitor, single point]",
CCCCOc1ccc(C(=O)NCC(=O)NCCOc2ccc(C)cc2)cc1,,inactive: 3.07%
Cc1ccc(-c2cc(C(=O)N/N=C/c3c(C)nn(-c4ccccc4)c3C)[nH]n2)cc1,"inconclusive [inhibitor, full curve]",
COc1ccc(CCC(C)NCc2cccc(Br)c2)cc1 (centres undefined),,inactive: 6.08%
O=C(CN1CCN(S(=O)(=O)c2ccccc2)CC1)Nc1ccc([N+](=O)[O-])cc1,"inconclusive [inhibitor, single point]",
Cc1ccc(O)c(-c2cc(C(F)(F)C(F)F)[nH]n2)c1,"inconclusive [inhibitor, single point]",
Cn1c(-c2ccc(F)cc2)cnc1NCc1cc2c(cc1[N+](=O)[O-])OCO2,active: 12.6 µM,
Cc1ccc(C(=O)CCC(=O)OCC(=O)Nc2c(C)nn(-c3ccccc3)c2C)cc1,"inconclusive [inhibitor, single point]",
Oc1cccc(Nc2ncnc3ccccc23)c1,"inconclusive [inhibitor, single point]",
Cc1ccc(C(=O)Nc2sc3c(c2C(=O)O)CCC(C)C3)o1 (centres undefined),"inconclusive [inhibitor, single point]",

SMILES,Potency,"activity change, negative = inhibition"
CC(=O)c1csc(-c2cccc(-c3nc4ccc(Cl)cn4c3NC3CCCCC3)c2)c1,"inconclusive [inhibitor, single point]",
O=C1CCCC2=C1C1c3ccccc3C(=O)N1c1ccc(C(=O)c3ccccc3)cc1N2 (centres undefined),"inconclusive [inhibitor, single point]",
COc1cccc(C(=O)Nc2ccc(Cl)c(C(F)(F)F)c2)c1,"inconclusive [inhibitor, single point]",
NS(=O)(=O)c1ccc(NC(=O)c2ccc(Cl)c(S(=O)(=O)NCc3ccco3)c2)cc1,"inconclusive [inhibitor, partial curve]",
O=C1/C(=C/c2cccnc2)CCc2c1[nH]c1ccccc21,,inactive: -29%
O=C(COC(=O)C1=NN(c2ccccc2)C(=O)CC1)Nc1ccc([N+](=O)[O-])cc1C(F)(F)F,"inconclusive [inhibitor, single point]",
CCOc1ccccc1NC(=O)CSc1ccc(-c2sc(C)nc2C)nn1,"inconclusive [inhibitor, partial curve]",
COc1ccc(C2SCCN2S(=O)(=O)c2ccccc2)cc1 (centres undefined),"inconclusive [inhibitor, single point]",
S=C(Nc1ccccn1)NC1CCCCC1,,inconclusive: -40.5% [inhibitor]
O=C(Nc1ccc(S(=O)(=O)Nc2ncccn2)cc1)c1cccc(S(=O)(=O)N2CCCC2)c1,,inactive: 9.53%
CCSc1nsc(NC(=O)Nc2ccccc2Cl)n1,,inactive: -19.5%
CCOC(=O)c1ccccc1NC(=O)CSc1ccc(-c2cccnc2)nn1,"inconclusive [inhibitor, single point]",
CC1CCC(NC(=O)COc2ccc(C(=O)c3ccccc3)cc2)CC1 (centres undefined),"inconclusive [inhibitor, partial curve]",
CCN(CC)P(=O)(Nc1ccc([N+](=O)[O-])cc1)c1c(C)nn(CCC#N)c1NC(=O)c1ccc(Cl)cc1 (centres undefined),,inactive: 11.7%
CSc1cccc(NC(=O)c2ccc(CN3CCc4ccccc4C3)cc2)c1,active: 8.91 µM,
COc1cc2c(cc1OC)-c1c(OC)c(OC)cc3ccnc(c13)C2=O,"inconclusive [inhibitor, partial curve]",
CCOc1ccc(S(=O)(=O)Nc2ccc(OC)nc2)cc1,"inconclusive [inhibitor, single point]",
Oc1ccc(F)cc1-c1cc(-c2ccc3c(c2)OCCO3)n[nH]1,"inconclusive [inhibitor, partial curve]",
CCOc1ccccc1NC(=O)CSc1nc2cc(O)ccc2c(=O)n1-c1ccc(OC)c(OC)c1,active: 11.2 µM,
Cc1csc2nc(CNC(=O)C3CC=CCC3C(=O)O)cn12 (centres undefined),,inactive: -9.25%
COc1ccc(N2CC(C(=O)NCCc3ccc(Cl)cc3)CC2=O)c(OC)c1 (centres undefined),"inconclusive [inhibitor, partial curve]",
COc1ccc(NC(=O)CSc2cc(C)nc3c(-c4ccccc4)cnn23)cc1,"inconclusive [inhibitor, full curve, poor fit]",
